# Test results as given in PubChem BioAssay AID1645886 (National Center for Advancing Translational Sciences (NCATS), 2021).
# Hit rate of the full screen: of about 16,000 compounds, about 260 (1.6%) were called active. The inconclusive results got no clear call from the source; some entries with a clear call stand among them for comparison. The call rests on the fitted dose curve; in most records, active means well fitted inhibition curve with a large enough effect; inconclusive means small, poorly fitted or top-dose-only effect; inactive means no such curve, though single readings can be large or run the other way. Potencies of inconclusive entries are left out as doubtful fits.
# Molecular target: Rap guanine nucleotide exchange factor 4 (Homo sapiens) (UniProt Q8WZA2)
# Test: Validation qHTS for antagonist of cAMP-regulated guanine nucleotide exchange factor 4 (EPAC2); further: nearly all actives have a fitted effect of over 40% in size
# Settings: EPAC2 Rap1B BODIPY-GDP exchange, fluorescence; activity, negative = inhibition: at 112 µM (top of the series)
# Description: Principle Investigator: Xiaodong Cheng Ph.D. The University of Texas Medical Branch, […], TX MLPCN Grant: NS066510 In multi-cellular eukaryotic organisms, the effects of cAMP are transduced by two ubiquitously-expressed intracellular cAMP receptors, the classic protein kinase A/cAMP-dependent protein kinase (PKA/cAPK) and the more recently discovered exchange protein directly activated by cAMP/cAMP-regulated guanine nucleotide exchange factor (EPAC/cAMP-GEF). Both PKA and EPAC are ubiquitously expressed in all tissues, and an increase in intracellular cAMP levels will lead to the activation of both PKA and EPAC. Therefore, careful dissections of the individual role and relative contribution of EPAC and PKA within the overall cAMP signaling in various model systems are critical for further elucidating the mechanism of cAMP signaling. To date no EPAC-specific antagonists and agonist, as well as isoform-specific agonists have been reported, and developing EPAC-specific pharmacological probes to determine the physiological functions that EPAC play in the overall cAMP-mediated signaling remains a major challenge within the research field. Furthermore, identified regulators of EPAC may lead to new mechanism-based therapeutic strategies specifically targeting the EPAC / cAMP-signaling components as EPAC has been implicated to play important roles in major human pathological conditions such as diabetes, heart disease, and cancer. This qHTS will be used to screen the Molecular Libraries Small Molecule Repository (MLSMR) as a concentration-titration series using the NCGC unique quantitative screening (qHTS) platform to find activators for EPAC1. In addition, this assay will also be used as a counterscreen for the EPAC2 qHTS. This fluorescent based assay is developed and validated for EPAC1 that measures exchange using EPAC effector Rap1 complex with BODIPY-GDP, a GDP analog with a tethered fluorophores. Activators are identified by monitoring the change in fluorescence signal as the exchanged free BODIPY-GDP has a reduced fluorescence compared to Rap1-bound BODIPY-GDP. Increase in signal (activation) is the desired outcome for the EPAC1 agonist while no activity in this assay is desired for the EPAC2 agonist counterscreen. Reference: [1] de Rooij, J., Zwartkruis, F. J., Verheijen, M. H., Cool, R. H., Nijman, S. M., Wittinghofer, A., and Bos, J.L. (1998) Nature 396, 474-477.
# Briefly, three uL of reagents (100 nM EPAC2, 250 nM RAP1B-BODIPY-GDP, 50 uM GDP) were dispensed into a 1536-well Greiner black solid-bottom medium binding assay plate. Controls and test compounds (23 nL) were transferred to the plate via a Kalypsys pin tool equipped with a 1536-pin array. The plates were centrifuged at 1,000 rpm for 15 seconds followed by 5 minute incubation at room temperature. The assay plates were read at 5 minute intervals for 30 minutes in the ViewLux plate reader using 480nm excitation and 540nm emission filters. The results were normalized to the agonist positive control of 6.5 mM cAMP.
# Potency means the concentration at half of the fitted maximal effect; tags describe the fitted curve by direction and shape.
# UniProt Q8WZA2, sequence (Q8WZA2 whole entry, looked up): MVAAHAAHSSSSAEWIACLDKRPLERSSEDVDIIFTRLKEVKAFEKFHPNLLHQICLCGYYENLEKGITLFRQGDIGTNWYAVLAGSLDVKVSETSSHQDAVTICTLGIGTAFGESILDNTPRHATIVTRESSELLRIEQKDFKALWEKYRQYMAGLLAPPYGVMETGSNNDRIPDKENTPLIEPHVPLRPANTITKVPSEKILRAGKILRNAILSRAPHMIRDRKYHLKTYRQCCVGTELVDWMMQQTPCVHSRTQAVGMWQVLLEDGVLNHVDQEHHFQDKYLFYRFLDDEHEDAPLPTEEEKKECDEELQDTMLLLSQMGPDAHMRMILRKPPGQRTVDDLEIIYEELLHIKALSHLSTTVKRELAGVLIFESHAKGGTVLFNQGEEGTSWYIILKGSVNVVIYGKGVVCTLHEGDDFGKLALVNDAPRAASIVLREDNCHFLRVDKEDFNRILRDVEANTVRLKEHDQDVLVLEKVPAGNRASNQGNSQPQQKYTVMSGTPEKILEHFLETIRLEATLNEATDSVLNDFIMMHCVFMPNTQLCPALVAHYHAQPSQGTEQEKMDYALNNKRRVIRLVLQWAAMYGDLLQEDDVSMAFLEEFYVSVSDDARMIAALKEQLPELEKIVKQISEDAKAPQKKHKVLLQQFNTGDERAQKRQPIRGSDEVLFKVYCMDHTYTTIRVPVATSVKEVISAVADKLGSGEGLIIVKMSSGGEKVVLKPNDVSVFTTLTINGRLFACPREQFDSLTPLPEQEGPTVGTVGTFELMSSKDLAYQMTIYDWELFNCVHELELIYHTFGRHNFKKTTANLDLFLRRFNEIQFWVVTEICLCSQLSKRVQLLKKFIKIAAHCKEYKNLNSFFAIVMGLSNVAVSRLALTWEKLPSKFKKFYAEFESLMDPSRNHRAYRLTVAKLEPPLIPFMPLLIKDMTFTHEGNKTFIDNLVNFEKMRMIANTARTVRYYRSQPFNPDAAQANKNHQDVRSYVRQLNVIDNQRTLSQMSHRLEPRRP
Structure (SMILES),Potency,"activity, negative = inhibition"
CN(C)c1ccc(CN2CCOc3ccc(CN4CCC(O)(c5cccnc5)CC4)cc3C2)cc1,"inconclusive [inhibitor, single point]",
O=S(=O)(c1ccccc1)N1CCC2(CCCN(Cc3nccs3)C2)CC1,"inconclusive [inhibitor, full curve]",
COc1ccc(F)c(CN2CCC3(CCC(CNC(=O)c4ccn(C)n4)O3)CC2)c1 (configuration not stated),,inactive: -3.57%
COc1ccc2[nH]cc(CCNc3ncnc4ccc(-c5ccccc5CN(C)C)cc34)c2c1,,inactive: -13.1%
N#C/C(=C\c1ccc(O)c(O)c1)C(=O)OCCc1cccs1,"inconclusive [inhibitor, partial curve]",
C/C1=C2N=C(/C=C3N=C(/C(C)=C4\[N-]C(C(CC(N)=O)C4(C)CCC(=O)NCC(C)OP(=O)([O-])OC4C(CO)OC(n5cnc6cc(C)c(C)cc65)C4O)C4(C)N=C1C(CCC(N)=O)C4(C)CC(N)=O)C(CCC(N)=O)C\3(C)C)C(CCC(N)=O)C/2(C)CC(N)=O.[CH3-].[Co+3] (configuration not stated),active: 10 µM,
OCCN1CCN(Cc2ccc3c(c2)CN(Cc2cccn2-c2ccccn2)CCO3)CC1,,inactive: -1.15%
N[C@@H](C(=O)O)c1ccc(C(=O)O)c(O)c1,"inconclusive [inhibitor, partial curve, poor fit]",
COc1ccc2c(c1)OCC(Cc1ccc(OC)c(O)c1)C2=O (configuration not stated),"inconclusive [inhibitor, partial curve, poor fit]",
CN(CCO)C(=O)c1cn(C2CCN(Cc3c(F)cccc3Cl)CC2)nn1,"inconclusive [inhibitor, single point]",
COc1ccc(-c2cc(=S)ss2)cc1,"inconclusive [inhibitor, partial curve]",
COc1ccc(S[C@@H](CCN2CC[C@H](NC(=O)OCc3ccccc3)CCC2=O)c2ccccc2)cc1,"inconclusive [inhibitor, single point]",
COc1ccccc1CNc1ccnc(-c2ccccc2C(F)(F)F)n1,"inconclusive [inhibitor, partial curve]",
CSc1ncccc1C(=O)NCCN1Cc2ccccc2OC(c2ccccc2F)C1 (configuration not stated),"inconclusive [inhibitor, partial curve, poor fit]",
COc1cc(NCc2ccc3nc(N)nc(N)c3c2C)cc(OC)c1OC,,inactive: 14.4%
O=CN1CCc2c([nH]c3ccccc23)C1c1cccc2cccnc12 (configuration not stated),"inconclusive [inhibitor, full curve]",

Structure (SMILES),Potency,"activity, negative = inhibition"
COc1cccc2oc(-c3ccccc3)cc(=O)c12,"inconclusive [inhibitor, partial curve, poor fit]",
COc1ccccc1CNc1nc(-c2ccc3c(c2)OCO3)nc2ccccc12,,inactive: -23.1%
CC(=O)NC(=O)c1ccccc1O,,inactive: 23.4%
O=C(c1cccc(F)c1)N1CCC2(CCCN(c3ccccc3)C2)CC1,"inconclusive [inhibitor, partial curve, poor fit]",
COC(=O)CCCOc1ccc(Cl)cc1Cl,"inconclusive [inhibitor, full curve]",
CC(=O)C[C@H]1c2ccccc2S(=O)(=O)N1C1CCCC1,"inconclusive [inhibitor, partial curve]",
CC(=O)N1CCN(c2ccc(OCC3CO[C@@](Cn4ccnc4)(c4ccc(Cl)cc4Cl)O3)cc2)CC1 (some centres not stated),active: 35.5 µM,
Cn1cccc1C(=O)N1CCC2(CCCN(c3ccccc3)C2)CC1,"inconclusive [inhibitor, partial curve, poor fit]",
Cc1cc2c(c(-c3cnccn3)c1)OC(CNC(=O)C1CCCN(C)C1)C2 (configuration not stated),"inconclusive [inhibitor, single point]",
NS(=O)(=O)c1ccc(Cl)c(S(N)(=O)=O)c1,"inconclusive [inhibitor, full curve, poor fit]",
COC(=O)C1CCCCN1Cc1nc(N2CCCN(C(C)=O)CC2)c2ccccc2n1 (configuration not stated),,inactive: -0.891%
CC(C)(C)c1ccc(S(=O)(=O)/C=C\C#N)cc1,"inconclusive [inhibitor, partial curve]",
CCCCCCCCCCCCOCCOCCOCCOCCOCCOCCOCCOCCOCCO,"inconclusive [inhibitor, partial curve]",
CCCCCCC[n+]1ccc(/C=C/c2c[nH]c3ccccc23)cc1,,inactive: 226%
Clc1ccc(C(Cn2ccnc2)OCc2ccsc2Cl)c(Cl)c1 (configuration not stated),"inconclusive [inhibitor, partial curve, poor fit]",
O=C(c1csnn1)N1CCC2(CC1)CN(C(c1ccccc1)c1ccccc1)C2,"inconclusive [inhibitor, full curve, poor fit]",
